{"source": "the supplement of paper PMC9446081", "note": "Among all 39,000 compounds or so, about 220 (0.56%) showed activity. Some of the results follow.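 Further: static incubation at 37 °C against the wild-type strain, values averaged over two biological replicates.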", "data": [{"test_system": "Escherichia coli K-12 BW25113", "assay": "relative growth (OD600 normalised to plate interquartile mean) (fraction); higher = less growth inhibition, active = 0.2 or less", "conditions": "50 µM; LB; incubation time: overnight (16-24 h)", "values": [{"compound": "C[C@H]1CN([C@@H](C)CO)C(=O)c2cc(NC(=O)C3CC3)ccc2O[C@H]1CN(C)Cc1ccc(-c2ccccc2)cc1", "relative growth": "inactive: 0.955"}, {"compound": "C[C@@H]1CCCCO[C@@H](CN(C)Cc2ccc(Cl)c(Cl)c2)[C@H](C)CN([C@H](C)CO)C(=O)c2cc(NC(=O)CCC(F)(F)F)ccc2O1", "relative growth": "inactive: 0.998"}, {"compound": "COCCNC(=O)C[C@H]1CC[C@@H]2[C@H](COc3ccc(NS(=O)(=O)c4ccc(Cl)cc4)cc3C(=O)N2C)O1", "relative growth": "inactive: 0.999"}, {"compound": "C[C@@H]1CCCCO[C@@H](CN(C)S(=O)(=O)c2ccc(F)cc2)[C@@H](C)CN([C@@H](C)CO)C(=O)c2cc(NC(=O)Nc3ccc4c(c3)OCO4)ccc2O1", "relative growth": "inactive: 1.01"}, {"compound": "CN(C)CC(=O)N[C@H]1CC[C@@H](CCNC(=O)C2CCC2)O[C@@H]1CO", "relative growth": "inactive: 1"}, {"compound": "CCC(=O)Nc1ccc2c(c1)C(=O)N(C)C[C@H](OC)[C@@H](C)CN(C(=O)CN1CCOCC1)[C@H](C)CO2", "relative growth": "inactive: 0.982"}, {"compound": "NCC1(c2cccs2)CCCC1", "relative growth": "inactive: 0.951"}, {"compound": "C[C@@H]1CN([C@H](C)CO)C(=O)c2cc(NC(=O)c3ccccc3)ccc2O[C@@H](C)CCCCO[C@H]1CN(C)S(=O)(=O)c1ccc(F)cc1", "relative growth": "inactive: 1.04"}, {"compound": "C[C@H]1CN([C@@H](C)CO)C(=O)c2cccc(NS(C)(=O)=O)c2O[C@H]1CN(C)S(=O)(=O)c1cn(C)cn1", "relative growth": "inactive: 1.02"}, {"compound": "Cc1noc(C)c1NC(=O)N(C)C[C@@H]1OCCCC[C@@H](C)Oc2ccc(NC(=O)Nc3ccccc3)cc2C(=O)N([C@@H](C)CO)C[C@H]1C", "relative growth": "inactive: 0.984"}, {"compound": "N[C@@H](CC(=O)O)c1cccc(O)c1", "relative growth": "inactive: 0.992"}, {"compound": "Nc1nc(-c2ccccc2)cc[n+]1[O-]", "relative growth": "inactive: 0.844"}, {"compound": "CC(C)NC(=O)Nc1ccc2c(c1)C(=O)N([C@H](C)CO)C[C@@H](C)[C@@H](CN(C)Cc1ccc3c(c1)OCO3)O2", "relative growth": "inactive: 0.976"}, {"compound": "CC1(C)[C@H]2C[C@@H](O[C@H]3O[C@@H](CO)[C@@H](O)[C@@H](O)[C@@H]3O)[C@@]1(C)C[C@@H]2O", "relative growth": "inactive: 0.988"}, {"compound": "COCC#Cc1cnc2c(c1)C(=O)N([C@H](C)CO)C[C@H](C)[C@H](CN(C)C(=O)Nc1cc(F)ccc1F)O2", "relative growth": "inactive: 0.976"}, {"compound": "Cc1cc(C(=O)Nc2cccc3c2O[C@@H](CN(C)C(=O)NC2CCCCC2)[C@H](C)CN([C@H](C)CO)C3=O)n(C)n1", "relative growth": "inactive: 0.983"}, {"compound": "Cc1ccc(S(=O)(=O)N(C)C[C@H]2Oc3ccc(NS(=O)(=O)c4cccs4)cc3C(=O)N([C@@H](C)CO)C[C@@H]2C)cc1", "relative growth": "inactive: 0.994"}]}]}
